Measured values reported in the supplement of paper PMC10498489.
The campaign covered roughly 2,300 compounds. About 330 (14%) showed activity.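 The calls were made as follows: active = median modified Z-score above 1.96; inactive = 1.96 or below.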 This is a selection; strong and weak results do not stand in their true shares.

The molecules below were run on HepG2 Srxn1-GFP reporter cells (+30 nM CDDO-Me) (assay: Srxn1-GFP intensity median modified Z-score relative to plate median; higher = stronger NRF2 / oxidative stress reporter activation, active = hit call of the paper). Details: 10 µM; exposure time: 24h.
Summary of the method: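 Per-cell cytoplasmic GFP was measured on confocal images of formaldehyde-fixed, Hoechst-stained HepG2 Srxn1-GFP BAC reporter cells, excluding images with fewer than 100 cells. Before this, the cells (20,000 per well, 96-well plates) were co-exposed for 24 h to compound at 10 μM and an NRF2 activator at 30 nM with ≤0.1% DMSO, in three replicate plates. Each value is the median over replicates of the per-plate modified Z-score of GFP intensity. That score was scaled with 1.4826 × median absolute deviation.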

Structure (SMILES)	Srxn1-GFP intensity median modified Z-score
CC(=O)Oc1ccc(O)cc1 [euspeclibcmpd2324]	active: 5.59
CC(C)C(=O)Nc1ccc([N+](=O)[O-])c(C(F)(F)F)c1 [euspeclibcmpd362]	active: 3.07
Cn1cnc([N+](=O)[O-])c1Sc1ncnc2[nH]cnc12 [euspeclibcmpd29]	active: 2.86
CC(=O)Oc1cc2c(s1)CCN(C(C(=O)C1CC1)c1ccccc1F)C2 (stereo not drawn) [euspeclibcmpd1049]	inactive: 1.63
O=C(O)CSCC(=O)NC1CCSC1=O (stereo not drawn) [euspeclibcmpd1212]	inactive: -0.181
CC(C)=CCOc1cc2oc(=O)ccc2cc1O [euspeclibcmpd1409]	inactive: 0.175
Oc1c(C2=CC[C@@H](c3ccc(Cl)cc3)CC2)c(O)c2ccccc2c1O [euspeclibcmpd664]	active: 37.9
C/C=C1\[C@H]2C=C(C)C[C@]1(N)c1ccc(=O)[nH]c1C2 [euspeclibcmpd1407]	inactive: -0.198
O=C(Oc1cccc2cccnc12)c1ccccc1 [euspeclibcmpd773]	active: 12.8
CN1CCC(OC(c2ccccc2)c2ccccc2)CC1 [euspeclibcmpd101]	inactive: -0.234
CC12CCC3C(=CCc4cc(O)ccc43)C1CCC2=O (stereo not drawn) [euspeclibcmpd1305]	inactive: 0.455
CCC(C)[C@H]1O[C@]2(CC[C@@H]1C)C[C@@H]1C[C@@H](C/C=C(\C)[C@@H](OC3C[C@H](OC)C(O[C@H]4C[C@H](OC)[C@@H](O)[C@H](C)O4)[C@H](C)O3)[C@@H](C)/C=C/C=C3\CO[C@@H]4[C@H](O)C(C)=CC(C(=O)O1)[C@]34O)O2 (stereo partly drawn) [euspeclibcmpd982]	inactive: 0.921
C[C@H]1COc2c(N3CCN(C)CC3)c(F)cc3c(=O)c(C(=O)O)cn1c23 [euspeclibcmpd2228]	inactive: 0.118
CN(C)CCCN1c2ccccc2CCc2ccccc21 [euspeclibcmpd158]	inactive: 0.664
C=C1CCC2C(CC2(C)C)C(=O)CCC1O (stereo not drawn) [euspeclibcmpd1623]	inactive: -0.579
COc1ccc(C(C)C(=O)c2ccc(O)cc2O)cc1 (stereo not drawn) [euspeclibcmpd1599]	active: 3.33
CN(C/C=C/C#CC(C)(C)C)Cc1cccc2ccccc12 [euspeclibcmpd767]	active: 3.24
C[n+]1ccccc1C=NO [euspeclibcmpd2378]	inactive: 0.131
C=CCSCC=C [euspeclibcmpd1525]	active: 2.8
Cc1cccc(Nc2ccccc2C(=O)O)c1C [euspeclibcmpd373]	active: 2.69
Cc1cccc(Nc2ccccc2C(=O)O)c1C	inactive: 0.337
CCOc1ccc(NC(=O)CC(C)O)cc1 (stereo not drawn) [euspeclibcmpd1247]	inactive: -0.424
CC(=O)OC=C1CSC2C(NC(=O)Cc3cccs3)C(=O)N2C1C(=O)O (stereo not drawn) [euspeclibcmpd2267]	inactive: 0.967
O=C1CCC(N2C(=O)c3ccccc3C2=O)C(=O)N1 (stereo not drawn) [euspeclibcmpd588]	inactive: -0.192

Structure (SMILES)	Srxn1-GFP intensity median modified Z-score
O=C(Nc1ccccc1Cl)C1=NN(C2CCS(=O)(=O)C2)C(=O)CC1 (stereo not drawn)	inactive: 1.26
O=C(O)CCCCC1CCSS1 (stereo not drawn) [euspeclibcmpd1157]	inactive: 0.0225
N=c1ccn([C@H]2CC[C@@H](CO)O2)c(=O)[nH]1 [euspeclibcmpd485]	inactive: -0.378
COc1ccc(-c2cc(=O)c3c(O)cc(OC)cc3o2)cc1 [euspeclibcmpd1440]	inactive: -0.308
O=C(/C=C/C=C/c1ccc2c(c1)OCO2)N1CCCCC1 [euspeclibcmpd355]	inactive: -0.217
COc1ccc(-c2cc(=O)c3c(OC)c(OC)c(OC)cc3o2)cc1OC [euspeclibcmpd1956]	inactive: 0.209
C#CCN(C)CCCOc1ccc(Cl)cc1Cl [euspeclibcmpd834]	inactive: 1.05
CC(C)NCC(O)c1cc(O)cc(O)c1 (stereo not drawn) [euspeclibcmpd185]	inactive: -0.276
CCC1(O)C=C(OC2CC(N(C)C)C(O)C(C)O2)c2c(cc3c(O)c4c(O)ccc(O)c4c(O)c3c2O)C1C(=O)OC (stereo not drawn) [euspeclibcmpd1939]	active: 97.7
COc1cc(/C=C/C(=O)N2CCCCCCC2)cc(OC)c1OC [euspeclibcmpd1272]	inactive: 0.06
c1ccc(CN(CC2=NCCN2)c2ccccc2)cc1 [euspeclibcmpd501]	inactive: 0.198
CC(=O)N(CC(O)CN(C(C)=O)c1c(I)c(C(=O)NCC(O)CO)c(I)c(C(=O)NCC(O)CO)c1I)c1c(I)c(C(=O)NCC(O)CO)c(I)c(C(=O)NCC(O)CO)c1I (stereo not drawn) [euspeclibcmpd1935]	inactive: -0.176
NC(=O)NS(=O)(=O)c1ccc(N)cc1 [euspeclibcmpd1009]	inactive: -0.532
CC1(C)CC[C@]2(C)CC[C@]3(C)C(=CCC4[C@@]5(C)CC[C@H](O)C(C)(C)C5CC[C@]43C)C2C1 (stereo partly drawn) [euspeclibcmpd1345]	inactive: 1.93
C=CCSCC1Nc2cc(Cl)c(S(N)(=O)=O)cc2S(=O)(=O)N1 (stereo not drawn) [euspeclibcmpd348]	inactive: -0.336
Cc1[nH]oc(=NS(=O)(=O)c2ccc(N)cc2)c1C [euspeclibcmpd283]	inactive: -0.063
CC[C@@H](CO)NCCN[C@@H](CC)CO [euspeclibcmpd120]	inactive: -0.816
CCN(CC)CCOCCOC(=O)C(CC)(CC)c1ccccc1 [euspeclibcmpd1221]	inactive: -0.566
Nc1ccccc1C(=O)CC(N)C(=O)O (stereo not drawn) [euspeclibcmpd1714]	inactive: -0.306
CC(CN(C)C)CN1c2ccccc2Sc2ccccc21 (stereo not drawn) [euspeclibcmpd308]	inactive: -0.246
CC(C)CCCC(C)NC(C)C (stereo not drawn) [euspeclibcmpd2040]	inactive: -0.125
N=C(N)NCCN1CCCCCCC1 [euspeclibcmpd2200]	inactive: -0.141
OC[C@H]1O[C@H](Oc2cc(O)cc(C=Cc3ccc(O)cc3)c2)[C@H](O)[C@@H](O)[C@@H]1O [euspeclibcmpd1401]	inactive: -0.514
COc1cc(O)ccc1C(C)=O [euspeclibcmpd1664]	inactive: -0.449
